From PubChem BioAssay AID624418 (National Center for Advancing Translational Sciences (NCATS), 2012)
Out of some 410,000 compounds screened, about 530 (0.13%) were called active. The inconclusive results got no clear call from the source; some entries with a clear call stand among them for comparison. Calls follow the shape of the dose curve; as a rule, active = well fitted inhibition curve with a large enough effect; inconclusive = small, poorly fitted or top-dose-only effect, or another doubt; inactive = no such curve, though single readings can be large or run the other way. Potencies of inconclusive entries are doubtful fits and often do not repeat.

Test: qHTS of GLP-1 Receptor Inverse Agonists: Cytotox Screen
Conditions: HEK293 cAMP-luciferase reporter cells, luminescence, 24 h; activity change, negative = inhibition: at 38.3 µM (top of the series) unless noted
Procedure, shortened: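 Here, cytotoxicity is scored as loss of luminescence. The MLSMR collection was tested on cells seeded in medium containing 10% Nu serum, with a 24 hr compound exposure preceded by 12 hours of culture.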
% is scaled to controls: 0 for no effect and ±100 for the full control effect; potency is read from the fitted curve at half-maximal effect.

SMILES | activity change, negative = inhibition | Potency
COc1ccc(Nc2oc(COc3ccccc3OC)nc2C#N)cc1 | inactive: 4.74% [at 1.53 µM] | 
COc1ccc(NC(=O)CSC2=Nc3ccccc3C3=NC(CCC(=O)NCc4ccco4)C(=O)N23)cc1 (centres undefined) |  | inactive
Cc1ccc2ncc3c(-c4ccccc4)nn(CC(=O)NC4CCCCC4)c3c2c1 |  | inactive
CC(C)(C)C1=CC(=O)C(=O)C(C(C)(C)C)=C1 |  | inconclusive: 22.4 µM [inhibitor, single point]
COc1ccc(NC(=O)N2CCN(c3nc(-c4cccc(OC)c4)cs3)CC2)cc1 |  | inconclusive: 10 µM [inhibitor, single point]
CCOC(=O)N1CCC(=NNC(=O)COc2ccc(OC)cc2)CC1 |  | inactive
CCc1nc2c(OCc3ccc(OC(F)F)cc3)cccn2c1N(C)C(=O)c1ccco1 |  | inactive
CC(C)O/C(=N/S(=O)(=O)c1ccc(Cl)cc1)c1ccccc1 |  | inactive
CCc1ccc(NC(=O)c2ccc(F)c(S(=O)(=O)NCC3COc4ccccc4O3)c2)cc1 (centres undefined) |  | inconclusive: 28.2 µM [inhibitor, single point]
CC1(C)C(C=C(Cl)Cl)C1C(=O)N(Cc1ccc(Cl)cc1)C1CCS(=O)(=O)C1 (centres undefined) |  | inconclusive: 28.2 µM [inhibitor, single point]
CCN(Cc1ccccc1)S(=O)(=O)c1ccc(C(=O)Nc2nnc(C)o2)cc1 |  | inconclusive: 1.41 µM [inhibitor, full curve]
CC(NC(=O)c1cc(S(=O)(=O)N(C)C)ccc1Cl)c1ccc(-n2ccnc2)cc1 (centres undefined) |  | inactive
CC(=O)c1ccc(NC(=O)COC(=O)CCc2ccc(S(=O)(=O)N3CCOCC3)cc2)cc1 |  | inconclusive: 3.16 µM [inhibitor, partial curve, poor fit]
COc1ccc2nc(NC(=O)c3cnccn3)sc2c1 |  | inconclusive: 28.2 µM [inhibitor, single point]
CC(C)(C)C1CCC(=NNC(=S)Nc2cccnc2)CC1 (centres undefined) |  | inconclusive: 10 µM [inhibitor, partial curve, poor fit]
CCCNC(=O)c1ccc2c(=O)c(O)c(C)[nH]c2c1 |  | inactive
CC(C)OCCCN1C(=O)c2[nH]nc(-c3ccccc3O)c2C1c1ccc(OCc2ccccc2)cc1 (centres undefined) |  | inconclusive: 28.2 µM [inhibitor, single point]
CCOC(=O)C1(CC2CCCCO2)CCN(Cc2cc3ccccc3[nH]2)CC1 (centres undefined) |  | inconclusive: 20 µM [inhibitor, single point]
CCC(C(=O)NCCC(C)C)n1ccc2cc(S(=O)(=O)N3CCCCC3)ccc21 (centres undefined) |  | inactive
COc1cc2nc(N(CCCN(C)C)C(=O)c3ccc(S(=O)(=O)N4CCc5ccccc54)cc3)sc2cc1OC |  | inconclusive: 11.2 µM [inhibitor, partial curve, poor fit]
C/C(=N\NC(=S)NC1CCCCC1)c1ccc(O)cc1 |  | inconclusive: 11.2 µM [inhibitor, single point]
CCN(CC)CCNC(=O)c1ccc2c(c1NCCO)C(=O)c1ccccc1C2=O |  | active: 5.01 µM
Cn1c(SCC(=O)NCC2CCCO2)ncc(C(=O)Nc2ccccc2)c1=O (centres undefined) |  | inconclusive: 28.2 µM [inhibitor, single point]

SMILES | activity change, negative = inhibition | Potency
O=C1/C(=C/c2cccnc2)SC(=S)N1C1CCS(=O)(=O)C1 (centres undefined) |  | inconclusive: 3.55 µM [inhibitor, full curve]
CCCC(=O)Nc1nnc(/C=C/c2ccc(OC)cc2)s1 |  | inconclusive: 2 µM [inhibitor, partial curve, poor fit]
O=C1C(Cl)=C(NCCN2CCCCC2)C(=O)c2ccccc21 |  | inconclusive: 7.94 µM [inhibitor, partial curve, poor fit]
O=C1C=CC(=O)c2c(O)c(CO)c(CO)c(O)c21 |  | inconclusive: 10 µM [inhibitor, single point]
COc1ccc(CN2CCCC(C(=O)Nc3cccc(-n4cnnn4)c3)C2)c(C)c1C (centres undefined) |  | inconclusive: 28.2 µM [inhibitor, single point]
COC(=O)CNC(c1ccccc1)c1cc(Br)ccc1NC(=O)CCN1CCOCC1 (centres undefined) |  | inactive
C/C(Cc1ccccc1)=N\NC(=O)c1cccnc1 |  | inactive
S=c1nc2ccccc2c2nc(-c3ccccc3)[nH]n12 |  | active: 0.891 µM
CC(=O)c1cccc(NS(=O)(=O)c2c(C)nc3sc(C)cn3c2=O)c1 |  | inactive
CCCN=C1N/C(=C\c2ccco2)C(=O)N1c1ccccc1 |  | inconclusive: 28.2 µM [inhibitor, single point]
Cc1nc2ccccn2c1C(=O)/C=C/c1ccc(F)cc1 |  | inconclusive: 12.6 µM [inhibitor, single point]
CC(C)CC(=O)NC(=S)N1CCN(c2ccc([N+](=O)[O-])cc2Cl)CC1 |  | inconclusive: 22.4 µM [inhibitor, single point]
COc1ccc(-c2nc3c(c(=O)[nH]c(=O)n3Cc3ccccc3)n2C)cc1 |  | inactive
COc1cc(-c2cc(NC(C)=O)c3ncc(-c4cc(OC)c(OC)c(OC)c4)n3c2)cc(OC)c1OC |  | inconclusive: 10 µM [inhibitor, single point]
C/C(=N/Nc1nc(C)cc(-c2ccccc2)n1)c1ccco1 |  | inconclusive: 11.2 µM [inhibitor, partial curve, poor fit]
CCc1ccccc1Nc1nn2c(=O)c3ccc(C(=O)Nc4cc(C)cc(C)c4)cc3nc2s1 |  | inactive
COc1cc2cc(CN(CCN3CCCC3)C(=O)Nc3ccccc3Cl)c(=O)[nH]c2cc1OC |  | inconclusive: 25.1 µM [inhibitor, single point]
CCOC(=O)C(C)Sc1nc(-c2ccccn2)ncc1OC (centres undefined) |  | inconclusive: 11.2 µM [inhibitor, single point]
Cc1ccc(-c2cc3ncc(C#N)c(N)n3n2)cc1 |  | inactive
Cc1ccc(C(=O)OCC(=O)N2CCOCC2)cc1 |  | inactive
COc1cccc(Cn2c(=O)n(-c3ccc(Br)cc3F)c(=O)c3sc4ccccc4c32)c1 |  | inactive
COc1ccc(C2C=C(C34CC5CC(CC(C5)C3)C4)NC(=S)N2)cc1OC (centres undefined) |  | inconclusive: 28.2 µM [inhibitor, single point]
CCCCNC(=O)CSc1nc2ccccc2nc1Cc1ccc(Cl)cc1 |  | inactive

SMILES | activity change, negative = inhibition | Potency
CCN(CC)c1ccc(/C=N/NC(=O)c2nnn(-c3nonc3N)c2C(C)C)c(O)c1 |  | inactive
Cc1ccc2nc(N(CCCN(C)C)C(=O)c3ccc(Br)s3)sc2c1 |  | inconclusive: 28.2 µM [inhibitor, single point]
COC(=O)c1ccc2nc(-c3ccc(C)cc3)c(Cc3ccsc3)n2c1 |  | inactive
Cc1cccc(/C=N/NC(=O)c2ccccc2OCc2cccc(Br)c2)n1 |  | inconclusive: 28.2 µM [inhibitor, single point]
O=C1c2[nH]nc(-c3ccccc3O)c2C(c2cccc(Cl)c2)N1Cc1ccco1 (centres undefined) |  | inconclusive: 20 µM [inhibitor, single point]
N#CCCN1CCCc2cc(N=Nc3ccc(C(F)(F)F)cc3)ccc21 |  | inconclusive: 28.2 µM [inhibitor, single point]
COc1ccccc1CN(C)C(=O)C(NC(=O)Cc1cccc2ccccc12)C(C)C (centres undefined) |  | inconclusive: 6.31 µM [inhibitor, partial curve, poor fit]
O=C(/C=C/c1ccco1)NC(=S)Nc1cc(C(F)(F)F)ccc1N1CCOCC1 |  | inactive
CC1CCc2sc(C(=O)NC3CCN(Cc4ccccc4)CC3)cc2C1 (centres undefined) |  | inconclusive: 31.6 µM [inhibitor, partial curve, poor fit]
C[C@@H]1CN([C@H](C)CO)C(=O)c2cccc(NC(=O)Nc3ccc(F)cc3)c2O[C@H]1CN(C)C(=O)Nc1ccc(C(F)(F)F)cc1 |  | inconclusive: 8.91 µM [inhibitor, partial curve, poor fit]
COc1ccccc1NC(=O)Nc1nc(CC(=O)Nc2cccc(F)c2)cs1 |  | inconclusive: 28.2 µM [inhibitor, single point]
COc1ccc(-c2cc(C(=O)NCc3ccc(C(F)(F)F)cc3)[nH]n2)c(C)c1 |  | inactive
CCOC(=O)CSC1=NC(=O)/C(=C/c2ccc(Br)cc2)S1 |  | inconclusive: 12.6 µM [inhibitor, single point]
COc1ccc(C)cc1NC(=O)CCS(=O)(=O)c1ccc2c(c1)CC(=O)N2C |  | inactive
O=C(CN1CCN(c2ccc(O)cc2)CC1)N1CCc2ccccc21 |  | inactive
O=C(CCN1CCc2ccccc2C(c2ccccc2)C1)c1ccc2c(c1)OCCO2 (centres undefined) |  | inconclusive: 28.2 µM [inhibitor, single point]
COc1ccccc1N1CCN(S(=O)(=O)CCNC(=O)c2cc(OC)c(OC)c(OC)c2)CC1 |  | inconclusive: 12.6 µM [inhibitor, single point]
CC(C)(C)c1ccc(C(=O)NC(=S)N2CCCCCC2)cc1 |  | inconclusive: 0.501 µM [inhibitor, full curve, poor fit]
Cc1cccnc1NC(=S)NCCc1ccccc1 |  | inconclusive: 11.2 µM [inhibitor, single point]
COc1ccc(CNC(=O)CN(C(=O)c2cc3sccc3n2C)C2CCCC2)cc1 |  | inconclusive: 11.2 µM [inhibitor, single point]
CC1CCCN(CCCNC(=O)c2cc3c(s2)-c2ccccc2OC3)C1 (centres undefined) |  | inactive
N=c1c(C(=O)NCCc2ccccc2)cc2c(=O)n3ccccc3nc2n1Cc1ccco1 |  | inconclusive: 15.8 µM [inhibitor, single point]
C(=N\Nc1nc2ccccc2[nH]1)/C1CCCCC1 |  | inconclusive: 28.2 µM [inhibitor, single point]
